Among the data in PMC5241739, “Structure of the Toll/Interleukin-1 Receptor (TIR) Domain of the B-cell Adaptor That Links Phosphoinositide Metabolism with the Negative Regulation of the Toll-like Receptor (TLR) Signalosome*^([image sbox.jpg])” (The Journal of Biological Chemistry, 2016) are binding values, retold here.

Results are given in words; binding and its absence hold for the method and conditions named.

Experiment [1] has as its target N-terminal domain of human BCAP comprising residues 7–142 (human) (UniProt Q6ZUJ8). Description: SEC-MALS; Superdex 200 Increase 10/300, 50 μl injected; 4, 2 and 0.8 mg/ml for the TIR, BCAP330 and BCAPL; both purified.
Experiment [2] shares this target. Description: AUC; sedimentation velocity, Beckman XL-A, 0.3 to 1 mg/ml, 30,000–40,000 rpm, c(S) and c(M) analysis with SEDFIT; both purified.
For experiment [3], the target named is N-terminal domain of human BCAP comprising residues 7–142, lysine residues dimethylated (as crystallised) (human) (UniProt Q6ZUJ8). Description: crystal structure; lysine-dimethylated BCAP 7-142, sitting drop at 20 °C, 2.5 Å; a single molecule in the asymmetric unit; both purified.

B1: N-terminal domain of human BCAP comprising residues 7–142 (domain or fragment, UniProt Q6ZUJ8 7-142)
chain: PRGCDILIVYSPDAEEWCQYLQTLFLSSRQVRSQKILTHRLGPEASFSAEDLSLFLSTRCVVVLLSAELVQHFHKPALLPLLQRAFHPPHRVVRLLCGVRDSEEFLDFFPDWAHWQELTCDDEPETYVAAVKKAIS
Take B1: the binding result is given as “no binding (tested: 4 mg/ml)” in experiment [1] and “no binding (tested: 0.3 to 1 mg/ml)” in experiment [2].

B2: N-terminal domain of human BCAP comprising residues 7–142, lysine residues dimethylated (as crystallised) (domain or fragment, UniProt Q6ZUJ8 7-142)
chain: PRGCDILIVYSPDAEEWCQYLQTLFLSSRQVRSQKILTHRLGPEASFSAEDLSLFLSTRCVVVLLSAELVQHFHKPALLPLLQRAFHPPHRVVRLLCGVRDSEEFLDFFPDWAHWQELTCDDEPETYVAAVKKAIS
modifications: lysine residues dimethylated
In the case of B2, the binding result in experiment [3] is on record as “no binding”.
